Results published in the RNAGym collection of RNA variant scans (doi:10.7554/elife.90254).
Read counts are not given, so values of variants with three or more changes are uncertain.

B1: LINE1-mini (parent)
chain: GGCAGAGCUCAACACAGCGUGGCAAAGUGGCUGUGGCUAGACUGCC

Variants of: B1
Test: self-cleavage, relative activity (ratio to wild type); higher = more cleavage; in vitro, sequencing; the parent is a self-cleaving ribozyme

Row | Variant | self-cleavage
1 | C15A G21A G30U A39C | 0.03
2 | C15A G17A U28C C46U | 0.02
3 | C15A U32C G36C | 0.01
4 | C15G C18G U20A G27A A41G | 0.02
5 | C15A C23A G35A A39C | 0.05
6 | C15A G17C A25C G36U | 0.06
7 | C15G G33U U34A U38A U43C | 0.01
8 | C15G U32A A39U | 0.05
9 | C15G A39G C45U | 0.06
10 | A14U U28A G36C U38C | 0.01
11 | C15A A25U U38G | 0.02
12 | C15A G30A U43G C46G | 0.01
13 | C15A U32A U34A | 0.23
14 | C15A G21U G29C U32C | 0.09
15 | C15A C31G G40C | 0.02
16 | C15A C31U U43G | 0.01
17 | C15G A16C C23A | 0.02
18 | C15G C23A C31G G40U C42G | 0.03
19 | C15G G21U G44C | 0.03
20 | C15G A26C C37A | 0.01
21 | C15A G17A G36A A41C | 0.05
22 | C15A A16C G22C A26C A39C | 0.02
23 | C15A A26U G33U U43A | 0.09
24 | C15A A24U G36A | 0.05

Row | Variant | self-cleavage
25 | C15A G19A A39G | 0.05
26 | C15G G21U A25G U43C | 0.03
27 | C15A G35U G40A | 0.05
28 | C15A U34G U38C | 0.03
29 | A14U G29U G40U A41C | 0.15
30 | C15A G35A G40A | 0.02
31 | C15G G21U C23A U34A G36U | 0.01
32 | C15A A26U G40U | 0.03
33 | C15A G17A G22U C42U | 0.02
34 | A14U G35C G36U A39U | 0.07
35 | C15A U28G C45G | 0.02
36 | C15G C31G G40U | 0.01
37 | A14U G35C U43A C46U | 0.04
38 | C15A U28A G36A | 0.23
39 | C15G U20A C45A | 0.01
40 | C15A G17C U32C G33A C45U | 0.02
41 | C15A G27C U32A | 0.08
42 | C15A G19A A26U G40U | 0.06
43 | C15G A16U A39U | 0.02
44 | C15G A25G C37A G40A | 0.02
45 | C15A A16G C42U C46A | 0.02
46 | C15A A39U C42A | 0.43
47 | C15G G29A G33C G44A | 0.03
48 | A14U U20C G29U G35C C45U | 0.05

Row | Variant | self-cleavage
49 | C15G A25G U32G C46U | 0
50 | C15A G21U C45U | 0.04
51 | C15A G17A G29A G40U | 0.02
52 | C15A U28A U34G G36U G44U | 0.06
53 | C15G A24U C42U G44U | 0.02
54 | C15A G19C G30U G35C C46G | 0.07
55 | C15A G22U U28G A39C | 0.03
56 | C15A U20G A26C U32C | 0.1
57 | C15A C37G G40A C42U | 0.04
58 | C15A G21U G40A | 0.01
59 | C15G G17A U28A C46A | 0.02
60 | C15A C18U U20A | 0.05
61 | C15A G36C C42A | 0.04
62 | C15A G19U U20C | 0.09
63 | C15A G17U G29U U38C | 0.27
64 | C15G G22A U28G | 0.02
65 | C15G A25C C45U | 0.05
66 | C15A G19A G36C | 0.05
67 | C15A G21C U34G | 0
68 | C15G G22C A26G | 0.01
69 | C15A A26U G27C | 0.05
70 | C15A G30A G36C C42A | 0.03
71 | C15G A25U G36C A39U U43G | 0
72 | C15G U20G A41G | 0.01

Row | Variant | self-cleavage
73 | C15A G21U G27C | 0.2
74 | C15A G30U G40A | 0
75 | C15G G33U A39G | 0.02
76 | A14U U20G C31U | 0.01
77 | C15G G17C U20C G40C C42U | 0
78 | C15A U20G U28C G33A | 0
79 | C15A G27C C46U | 0.07
80 | C15A U20A G22U U43C | 0.36
81 | C15A U20C G36C U38A | 0.02
82 | C15A G19C G36A C46A | 0.07
83 | C15A G21C G22A | 0.01
84 | C15A A24U G29C U38A U43A | 0.03
85 | C15A U28G G29A | 0.05
86 | C15G A24C C37U U38G | 0.02
87 | C15G C23U G30C G33C A39C U43C | 0.02
88 | A14U U28G C31G | 0.02
89 | C15A G19A G21A G22C A41G U43A | 0.01
90 | A14U U32A G40C C46A | 0.02
91 | C15A C18G G19C G21U A26G U43C | 0.04
92 | C15A U34C U38C | 0.02
93 | C15G A25C G27U G33A U34A U38C A41G U43A | 0
94 | C15A G29U G36U | 0.05
95 | A14U U34G C37G G40C | 0.02
96 | C15G U20G G30U G40C | 0

Row | Variant | self-cleavage
97 | C15A G17C G27U G40A | 0.13
98 | C15G G21U U34C G35A G36C A39C G40A | 0.01
99 | C15A G17C G29A G30C | 0.02
100 | C15A G44A C45U | 0.03
101 | C15A A26U U34A G44U | 0.01
102 | C15G G30U U32C | 0.07
103 | C15G C23G G35U | 0.01
104 | C15G A24C C46U | 0.02
105 | C15A C37A U38A | 0.12
106 | C15G G35U U38A U43C | 0.01
107 | C15G C18A G30A C31A | 0.02
108 | A14U U34G G36A C42U | 0.04
109 | A14U U20G C37U C45U | 0.04
110 | C15G C42U G44U | 0.04
111 | A14U U34A C45U | 0.8
112 | C15G G22U A24C C42U | 0.01
113 | C15A U32C G35C | 0.02
114 | C15A A39G C42U | 0.02
115 | C15A G21A G29A C45A | 0.03
116 | C15G G19A G44A | 0.08
117 | A14U U32C G35C G40U A41U | 0.11
118 | A14U U34A A39C G40A | 0.02
119 | C15A U32C G35A G40U | 0.05
120 | C15A G33U G40C | 0.08

Row | Variant | self-cleavage
121 | C15A U34G G44A | 0.04
122 | C15G G27A G35U G40A | 0
123 | C15G A41C C45G | 0.02
124 | C15G A41C C45A | 0.01
125 | C15G C31G A41U C45G | 0.01
126 | C15G G21C G44C | 0.01
127 | C15G G17U U28C U38C | 0.09
128 | C15A U20A C37U C45U | 0.02
129 | C15G A41G U43C | 0.01
130 | C15G C23U G27U | 0.07
131 | C15A A16U G30A C31A U43G | 0.01
132 | C15G C18G U38A | 0.16
133 | C15A G19A G21A A25G | 0
134 | C15A U20G A39U | 0.1
135 | C15A A24U U38C | 0.05
136 | C15A G17A G21U A25G G40U G44A | 0.14
137 | C15G G17A C18A | 0.05
138 | C15A G30U U43C | 0.02
139 | C15A A24U G36U C46U | 0.03
140 | C15G C23A A26G G36U | 0.02
141 | C15G G19C A39C | 0.02
142 | C15A C37G U43C | 0.02
143 | C15G G29C G36A | 0.03
144 | C15A G17C G36U | 0.09

Row | Variant | self-cleavage
145 | C15A G35C G40U | 0
146 | C15G C18U G22C | 0.02
147 | C15G G17A G40U | 0.1
148 | A14U U20C C23U U34A C46U | 0.26
149 | C15G G19C G27A C31U | 0.16
150 | C15A G22C U43C | 0
151 | C15G C31G U34C G44C | 0.01
152 | C15A C18G C31A U32G U34C | 0.08
153 | A14U U28G G30A G33U G35U C42G | 0.12
154 | C15G C42A G44C | 0.02
155 | C15A G19A C23U C31G C45U | 0.01
156 | C15A G19A G21C C31U G40C | 0.02
157 | C15A G22U C23A U38A | 0.05
158 | C15A C23G U38C | 0.02
159 | C15G G17C U20G G44C | 0.02
160 | C15A G21U G22A | 0.02
161 | A14U G29A U34G | 1.32
162 | C15G G27U G33C G44U | 0.11
163 | C15A G17U C18G G29A | 0.04
164 | C15A C18A A24C U38G | 0
165 | C15A G21A G22A C31A G36A | 0.03
166 | C15A U32C C37U | 0.04
167 | C15G A39C C46A | 0.01
